Experimental findings from the supplement of paper PMC3334620 are described below.

The full ranking holds about 33,000 sequences; the median of “E-score (-0.5 to 0.5)” is about -0.032, and the highest 2% start at about 0.36. This is one part of the list.

This experiment addresses T1, Sko1 (UniProt Q02100).
T1 sequence: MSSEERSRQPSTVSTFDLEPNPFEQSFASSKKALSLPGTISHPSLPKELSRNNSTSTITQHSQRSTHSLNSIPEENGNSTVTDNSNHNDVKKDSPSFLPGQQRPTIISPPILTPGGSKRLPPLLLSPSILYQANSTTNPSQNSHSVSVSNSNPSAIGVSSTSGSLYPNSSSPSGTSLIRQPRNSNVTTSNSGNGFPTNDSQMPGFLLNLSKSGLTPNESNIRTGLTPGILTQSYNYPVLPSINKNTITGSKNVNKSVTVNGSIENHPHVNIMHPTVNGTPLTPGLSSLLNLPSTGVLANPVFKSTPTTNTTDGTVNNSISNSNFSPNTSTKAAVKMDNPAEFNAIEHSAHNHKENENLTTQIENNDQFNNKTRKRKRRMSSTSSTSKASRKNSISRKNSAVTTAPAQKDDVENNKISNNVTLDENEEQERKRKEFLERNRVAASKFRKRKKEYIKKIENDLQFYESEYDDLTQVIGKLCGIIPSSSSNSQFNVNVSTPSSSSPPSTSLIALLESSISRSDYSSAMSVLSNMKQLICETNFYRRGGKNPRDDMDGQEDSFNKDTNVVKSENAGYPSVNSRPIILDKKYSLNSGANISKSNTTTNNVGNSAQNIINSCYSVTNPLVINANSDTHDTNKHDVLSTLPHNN
In words: PBM E-score (8-mer binding enrichment) (E-score (-0.5 to 0.5)); higher = stronger / more preferred TF binding; most listed sequences are background and not binding sites. The settings on record: protein concentration: 200 nM; construct: GST-full length. The essentials:
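Bound GST-tagged yeast transcription factors, applied at about 100-200 nM to double-stranded universal all-10-mer Agilent arrays, were detected with fluorescent anti-GST. Scans were normalised with masliner. A modified Wilcoxon-Mann-Whitney statistic, the E-score, was assigned to each ungapped eight-base word pooled with its reverse complement by the Universal PBM Analysis Suite.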
Take CCTGGATA: the “PBM E-score” value is -0.216.

As for ATGCCCGG, the “PBM E-score” value is -0.334.

Consider AAAATCCT, for which the “PBM E-score” value is -0.0331.

Take ACCAGCTC: the “PBM E-score” value was -0.0776.

With CGTCAACG, the “PBM E-score” value turned out to be 0.389.

In the case of ACATCGCG, the “PBM E-score” value worked out at 0.214.

In the case of TAAGTTAA, the “PBM E-score” value is 0.134.

As to TCGGTAAA, the “PBM E-score” value stood at 0.075.

Take CCTGCCGC: the “PBM E-score” value was -0.199.

Turning to GATTGTGC, the “PBM E-score” value is -0.164.

As for ACTGACGA, the “PBM E-score” value is 0.364.

On to AGATACTC, for which the “PBM E-score” value turned out to be 0.0307.

As for AGTCTCCG, the “PBM E-score” value was -0.0847.

GAAAAATA: the “PBM E-score” value stood at 0.201.

In the case of GCTGCCAC, the “PBM E-score” value was -0.0429.

Take AAGGACAT: the “PBM E-score” value was 0.0657.

Regarding GAGTACTC, the “PBM E-score” value was -0.261.

For GCAGTGTA, the “PBM E-score” value came to 0.1.

Regarding TGGTGGAA, the “PBM E-score” value was -0.086.

On to AACACTCA, for which the “PBM E-score” value was -0.0484.

As to AGGAGCCA, the “PBM E-score” value was -0.258.

Consider ACAGGCCG, for which the “PBM E-score” value is -0.264.

With AGTCTTGA, the “PBM E-score” value was -0.072.

For the sequence AACTGGAC, the “PBM E-score” value was 0.00123.

Regarding ATACGCAA, the “PBM E-score” value is 0.447.

On to ACTGGGGA, for which the “PBM E-score” value is -0.277.

In the case of CGATTCAC, the “PBM E-score” value turned out to be 0.124.

As to AAGAAGCG, the “PBM E-score” value is -0.203.

With AGGACACG, the “PBM E-score” value is -0.0653.

For the sequence AATTATCA, the “PBM E-score” value stood at 0.28.

For AATAAGCA, the “PBM E-score” value amounted to 0.121.

Turning to GAACGAGC, the “PBM E-score” value is -0.0808.

Regarding AGGGTCGC, the “PBM E-score” value was -0.188.

With CCGGGCTC, the “PBM E-score” value is -0.44.

On to ACGCCAAG, for which the “PBM E-score” value is -0.0349.

Consider GCGGGAAC, for which the “PBM E-score” value was -0.246.

GATGGTGA: the “PBM E-score” value was determined as 0.126.

For CCCACCAC, the “PBM E-score” value was -0.119.

As for GACTGCGA, the “PBM E-score” value is -0.144.

With AACCTCCA, the “PBM E-score” value is -0.377.

Turning to CACGAACG, the “PBM E-score” value came out at 0.0658.

On to CGCTGGAG, for which the “PBM E-score” value was -0.272.

Take CTAACGTC: the “PBM E-score” value came out at 0.338.

For GAGTGACA, the “PBM E-score” value is 0.117.

Consider GAGGACTA, for which the “PBM E-score” value is -0.236.

Take ATCTACCA: the “PBM E-score” value stood at 0.0297.

Turning to ACCGCCTG, the “PBM E-score” value was -0.251.

Consider ATGCCTAA, for which the “PBM E-score” value stood at 0.00572.

Regarding GCTGCTGA, the “PBM E-score” value is -0.0842.

AGGTGCGA: the “PBM E-score” value was -0.0564.

Regarding AGAAAGAA, the “PBM E-score” value is -0.0484.

As for ATTTTTCC, the “PBM E-score” value was -0.00951.

Consider CTGGAAGA, for which the “PBM E-score” value is -0.118.

AACCCCAG: the “PBM E-score” value was -0.338.

For the sequence AACTGCGA, the “PBM E-score” value was -0.148.

Take AACCCCCG: the “PBM E-score” value was -0.362.

On to TCATTCGA, for which the “PBM E-score” value worked out at 0.229.

On to TAGATAGA, for which the “PBM E-score” value was found to be 0.0341.

For AAACCGGG, the “PBM E-score” value was -0.07.

CCAACGCC: the “PBM E-score” value is -0.221.

Regarding ATTGCAAC, the “PBM E-score” value was 0.00403.

For CAAGCTGG, the “PBM E-score” value is -0.243.

As to CTAGTTCA, the “PBM E-score” value was -0.0321.

Turning to AGGGATAG, the “PBM E-score” value is -0.141.

For the sequence AGATCGGC, the “PBM E-score” value is -0.262.

As for AGATGTAG, the “PBM E-score” value was 0.0176.

For the sequence CTTTTTGC, the “PBM E-score” value is -0.0988.

With AGTCACAC, the “PBM E-score” value is -0.0301.

Consider TACTGATA, for which the “PBM E-score” value is 0.0497.

In the case of GCGCGTAA, the “PBM E-score” value stood at 0.336.

In the case of ATTTAGAC, the “PBM E-score” value came to 0.162.

As for AAAGAACC, the “PBM E-score” value is -0.0929.

On to AAAGGCCT, for which the “PBM E-score” value was -0.202.

Take GCAGCGTA: the “PBM E-score” value is -0.0487.

Consider AACTTTCA, for which the “PBM E-score” value amounted to 0.248.

Turning to GCTCTCCA, the “PBM E-score” value is -0.272.

Regarding CTGACCGA, the “PBM E-score” value was -0.257.

Turning to ACGGAGAC, the “PBM E-score” value is -0.102.

For GCTAGCGA, the “PBM E-score” value was -0.0668.

As to ACAAAGCG, the “PBM E-score” value was -0.00371.

GATTAACA: the “PBM E-score” value was found to be 0.218.

Take ACCGAACC: the “PBM E-score” value was -0.372.

In the case of ATGCTAGA, the “PBM E-score” value turned out to be 0.0343.

Take GGCGTATA: the “PBM E-score” value worked out at 0.148.

For the sequence AAGTTATA, the “PBM E-score” value amounted to 0.0874.

With ACAGCCGT, the “PBM E-score” value was -0.112.

As to CGTAGGAA, the “PBM E-score” value was found to be 0.158.

AGTTTCGA: the “PBM E-score” value was -0.055.

With CCATTGGC, the “PBM E-score” value is -0.297.

On to ATTAGCAG, for which the “PBM E-score” value was -0.282.

As to ATTACTAC, the “PBM E-score” value is 0.275.

On to TCGCGCCA, for which the “PBM E-score” value was -0.0532.

Turning to TCATTAGA, the “PBM E-score” value was 0.189.

On to AGACCTGG, for which the “PBM E-score” value was -0.199.

In the case of CGGCTCGA, the “PBM E-score” value is -0.0924.

As for ATGGATGG, the “PBM E-score” value was -0.249.

ATTACCGG: the “PBM E-score” value was -0.138.

Take CATCCTGG: the “PBM E-score” value was -0.0995.

On to TCTAGTAA, for which the “PBM E-score” value was determined as 0.13.

ACTCGGGC: the “PBM E-score” value was -0.195.

With GATGCACA, the “PBM E-score” value came out at 0.081.

Turning to GTTGTCGA, the “PBM E-score” value is 0.0522.

In the case of ATTTCCCC, the “PBM E-score” value is -0.102.

As to AGCACATA, the “PBM E-score” value stood at 0.0436.

As to ATGATGTA, the “PBM E-score” value stood at 0.459.

For ATGCTTTC, the “PBM E-score” value came out at 0.135.

In the case of ACGGACCG, the “PBM E-score” value was -0.37.

With GAACTTGA, the “PBM E-score” value worked out at 0.106.

Consider GGTATTTA, for which the “PBM E-score” value came to 0.0513.

As to AAAAGAAG, the “PBM E-score” value came out at 0.0256.
